This is one part of the list.
Legend:
Experiment in all cases: glycan array binding signal (z-score within array); higher = stronger binding
Conditions in all cases: glycan notation: IUPAC condensed, linker removed
Gal3S(b1-4)Glc = target: Gal3S(b1-4)Glc
In short: (§1)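 Arrays were curated from the Consortium for Functional Glycomics database, 3228 in total, and kept only where the protein sequence was available. Binding is expressed as a within-array Z-score. This score was averaged across arrays of the same protein sequence at different concentrations or buffers and across linkers, and negative values can be read as non-binding.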

Gal3S(b1-4)Glc6S = target: Gal3S(b1-4)Glc6S
In short: as §1

Gal3S(b1-4)GlcNAc = target: Gal3S(b1-4)GlcNAc
In short: as §1

[1] = target: Gal3S(b1-4)[Fuc(a1-3)]Glc6S
In short: as §1

[2] = target: Gal3S(b1-4)[Fuc(a1-3)]GlcNAc
In short: as §1

[3] = target: Gal3S(b1-4)[Fuc(a1-3)]GlcNAc6S
In short: as §1

Gal3S4S(b1-4)GlcNAc = target: Gal3S4S(b1-4)GlcNAc
In short: as §1

Gal3S6S(b1-4)GlcNAc = target: Gal3S6S(b1-4)GlcNAc
In short: as §1

Gal3S6S(b1-4)GlcNAc6S = target: Gal3S6S(b1-4)GlcNAc6S
In short: as §1

Gal4S(b1-4)GlcNAc = target: Gal4S(b1-4)GlcNAc
In short: as §1

Gal4S6S(b1-4)GlcNAc = target: Gal4S6S(b1-4)GlcNAc
In short: as §1

Gal6P(b1-4)GlcNAc = target: Gal6P(b1-4)GlcNAc
In short: as §1

Gal6S(b1-3)GlcNAc = target: Gal6S(b1-3)GlcNAc
In short: as §1

Gal6S(b1-3)GlcNAc6S = target: Gal6S(b1-3)GlcNAc6S
In short: as §1

Gal6S(b1-4)Glc = target: Gal6S(b1-4)Glc
In short: as §1

Gal6S(b1-4)Glc6S = target: Gal6S(b1-4)Glc6S
In short: as §1

Gal6S(b1-4)GlcNAc = target: Gal6S(b1-4)GlcNAc
In short: as §1

Gal6S(b1-4)GlcNAc6S = target: Gal6S(b1-4)GlcNAc6S
In short: as §1

GalNAc(a1-3)Gal = target: GalNAc(a1-3)Gal
In short: as §1

GalNAc(a1-3)GalNAc = target: GalNAc(a1-3)GalNAc
In short: as §1

[4] = target: GalNAc(a1-3)GalNAc(b1-3)Gal(a1-4)Gal(b1-4)Glc
In short: as §1

[5] = target: GalNAc(a1-3)GalNAc(b1-3)Gal(a1-4)Gal(b1-4)GlcNAc
In short: as §1

GalNAc(b1-3)Gal = target: GalNAc(b1-3)Gal
In short: as §1

[6] = target: GalNAc(b1-3)Gal(a1-4)Gal(b1-4)GlcNAc
In short: as §1

[7] = target: GalNAc(b1-3)Gal(a1-4)Gal(b1-4)GlcNAc(b1-3)Gal(b1-4)Glc
In short: as §1

[8] = target: GalNAc(b1-3)Gal(a1-6)Gal(b1-4)Glc
In short: as §1

GalNAc(b1-3)GalNAc = target: GalNAc(b1-3)GalNAc
In short: as §1

GalNAc(b1-3)GlcNAc = target: GalNAc(b1-3)GlcNAc
In short: as §1

GalNAc(b1-4)Gal(b1-4)Glc = target: GalNAc(b1-4)Gal(b1-4)Glc
In short: as §1

GalNAc(b1-4)GlcNAc = target: GalNAc(b1-4)GlcNAc
In short: as §1

[9] = target: GalNAc(b1-4)GlcNAc(b1-2)Man
In short: as §1

[10] = target: GalNAc(b1-4)GlcNAc(b1-2)Man(a1-3)[GalNAc(b1-4)GlcNAc(b1-2)Man(a1-6)]Man(b1-4)GlcNAc(b1-4)GlcNAc
In short: as §1

[11] = target: GalNAc(b1-4)GlcNAc(b1-3)GalNAc(b1-4)GlcNAc
In short: as §1

GalNAc(b1-4)GlcNAc6S = target: GalNAc(b1-4)GlcNAc6S
In short: as §1

GalNAc(b1-6)GalNAc = target: GalNAc(b1-6)GalNAc
In short: as §1

GalNAc3S(b1-4)GlcNAc = target: GalNAc3S(b1-4)GlcNAc
In short: as §1

GalNAc3S(b1-4)GlcNAc3S = target: GalNAc3S(b1-4)GlcNAc3S
In short: as §1

[12] = target: GalNAc3S(b1-4)[Fuc(a1-3)]GlcNAc
In short: as §1

GalNAc4S6S(b1-4)GlcNAc = target: GalNAc4S6S(b1-4)GlcNAc
In short: as §1

GalNAc6S(b1-4)GlcNAc = target: GalNAc6S(b1-4)GlcNAc
In short: as §1

Glc(a1-4)Glc = target: Glc(a1-4)Glc
In short: as §1

[13] = target: Glc(a1-4)Glc(a1-4)Glc(a1-4)Glc
In short: as §1

Glc(a1-6)Glc(a1-6)Glc = target: Glc(a1-6)Glc(a1-6)Glc
In short: as §1

[14] = target: Glc(a1-6)Glc(a1-6)Glc(a1-6)Glc
In short: as §1

Glc(b1-4)Glc = target: Glc(b1-4)Glc
In short: as §1

B1: GS7807P-bth-537-23-537 (Bacteroides thetaiotaomicron) (protein)
chain: NYENINSNPYEAPDLSADGYALGSAMNNLAGCVVSPDVNTAQFTDCLLGGPLGGYFADSNAGFTETISNFNPKDDWSRVFLKSDKIIPTLYSNLTQVKLVSQNTNDPVPYAIAQVIKVAAMHRVTDAFGPIPYSQIGANGEIATPYDSQEVTYNTFFDELNAAIATLNENSNEQLVPTADYIYKGDVKKWIRFANSLKLRLAIRIAYANPVKAQQMAEEAVNPANGGVIESNADNATWNYFETSQNPIYVATRYNQVQTSDHGGVPCLTGGDTHAAADIICYMNGYKDNRREKFFTKSEWAGQDYVGMRRGIVIPELKTTGHKYSGVNIAPTSPLYWMNAAEVAFLRAEGQAVFNFSMGGTAESFYNQGIRLSFEQWGADGVEDYLKDDVNKPTAYTDPAGTNTYQNALSNITIKWNDSADKEEKQERIIVQKWIANWQLGNEAWADFRRTGYPKLIPVKENKSGGVVDSEKGARRMPYPLDEFVSNKANVEYAIANYLHGADNMATDVWWASKK
- glycan array binding signal (z-score) (Gal3S(b1-4)Glc): -0.348
- glycan array binding signal (z-score) (Gal3S(b1-4)Glc6S): -0.367
- glycan array binding signal (z-score) (Gal3S(b1-4)GlcNAc): -0.294
- glycan array binding signal (z-score) [1]: 0.672
- glycan array binding signal (z-score) [2]: -0.324
- glycan array binding signal (z-score) [3]: -0.244
- glycan array binding signal (z-score) (Gal3S4S(b1-4)GlcNAc): -0.363
- glycan array binding signal (z-score) (Gal3S6S(b1-4)GlcNAc): 0.325
- glycan array binding signal (z-score) (Gal3S6S(b1-4)GlcNAc6S): -0.311
- glycan array binding signal (z-score) (Gal4S(b1-4)GlcNAc): -0.373
- glycan array binding signal (z-score) (Gal4S6S(b1-4)GlcNAc): -0.308
- glycan array binding signal (z-score) (Gal6P(b1-4)GlcNAc): -0.369
- glycan array binding signal (z-score) (Gal6S(b1-3)GlcNAc): 0.113
- glycan array binding signal (z-score) (Gal6S(b1-3)GlcNAc6S): -0.286
- glycan array binding signal (z-score) (Gal6S(b1-4)Glc): 1.01
- glycan array binding signal (z-score) (Gal6S(b1-4)Glc6S): 2.21
- glycan array binding signal (z-score) (Gal6S(b1-4)GlcNAc): 0.037
- glycan array binding signal (z-score) (Gal6S(b1-4)GlcNAc6S): 2.01
- glycan array binding signal (z-score) (GalNAc(a1-3)Gal): -0.007
- glycan array binding signal (z-score) (GalNAc(a1-3)GalNAc): 0.94
- glycan array binding signal (z-score) [4]: -0.031
- glycan array binding signal (z-score) [5]: -0.318
- glycan array binding signal (z-score) (GalNAc(b1-3)Gal): -0.153
- glycan array binding signal (z-score) [6]: 0.36
- glycan array binding signal (z-score) [7]: 0.217
- glycan array binding signal (z-score) [8]: -0.173
- glycan array binding signal (z-score) (GalNAc(b1-3)GalNAc): -0.288
- glycan array binding signal (z-score) (GalNAc(b1-3)GlcNAc): 0.368
- glycan array binding signal (z-score) (GalNAc(b1-4)Gal(b1-4)Glc): 0.06
- glycan array binding signal (z-score) (GalNAc(b1-4)GlcNAc): -0.232
- glycan array binding signal (z-score) [9]: -0.394
- glycan array binding signal (z-score) [10]: -0.087
- glycan array binding signal (z-score) [11]: -0.24
- glycan array binding signal (z-score) (GalNAc(b1-4)GlcNAc6S): -0.344
- glycan array binding signal (z-score) (GalNAc(b1-6)GalNAc): -0.355
- glycan array binding signal (z-score) (GalNAc3S(b1-4)GlcNAc): -0.394
- glycan array binding signal (z-score) (GalNAc3S(b1-4)GlcNAc3S): -0.283
- glycan array binding signal (z-score) [12]: -0.339
- glycan array binding signal (z-score) (GalNAc4S6S(b1-4)GlcNAc): -0.346
- glycan array binding signal (z-score) (GalNAc6S(b1-4)GlcNAc): 1.97
- glycan array binding signal (z-score) (Glc(a1-4)Glc): -0.309
- glycan array binding signal (z-score) [13]: -0.328
- glycan array binding signal (z-score) (Glc(a1-6)Glc(a1-6)Glc): -0.397
- glycan array binding signal (z-score) [14]: -0.369
- glycan array binding signal (z-score) (Glc(b1-4)Glc): -0.372

Reference: the supplement of paper PMC8728848
